# Reference: the supplement of paper PMC11417369
# ± gives the standard deviation of the averaged measurements. The list shows a part of the results.
# Tested on: PfAP2-G AP2 domain (GST-tagged)
# Assay: gcPBM binding intensity (ln(normalized median fluorescence intensity)); higher = stronger DNA binding
# Procedure, shortened: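 Plasmodium falciparum DNA-binding domains carrying a GST tag were expressed in E. coli and applied for 1 h, at about 25 μg on average, to an Agilent 4 × 180k array. The array held primer-extended double-stranded 36-bp intergenic genomic probes together with negative controls, and binding took place in 1× PBS with 1% milk, 0.2 mg/ml BSA, 0.5% salmon testes DNA and 0.03% Triton X-100. An Alexa488 anti-GST antibody detected bound protein, and the array was scanned at 488 nm. Binding intensity is taken as the highest Masliner-normalised natural-log median intensity across replicate spots of either probe orientation.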
row,Sequence,gcPBM binding intensity (ln)
1,TGAAATTAAATATATACACACATATATATTTATATG [CACACA_site3516],9.89
2,AAACAAAAGGAAAACATATATATATTAAATGTATAT [CACACA_negctrl_site1663],9.64 ± 0.33
3,AAACGGGAGAAATAAAAATAAAAATAATAAAACAAA [XGTACX_negctrl_site586],9.8 ± 0.23
4,TATACTCATGGACACACACACATACACAGACATACA [CACACA_site5024],10.8 ± 0.47
5,TAAATATGAGGGAACACACACATGATATATAAATTC [CACACA_site2400],10.04 ± 0.049
6,GGAAATAAAATTAAATGTACGAAAACTCATTAAATT [XGTACX_site4274],10.6 ± 0.41
7,TTCATATATAATTGTACACACAAAAACGACATTGTG [CACACA_site2074],11.6 ± 1
8,TAAATTGGTGCAAAGTGTACATATATATCTTTCCTA [XGTACX_site5458],11.1 ± 0.61
9,GAGAAAAATATATACACACACATAAATATATACATA [CACACA_site1895],9.835 ± 0.064
10,TAAATAAAAAGACACACACACATATTTATATTTATA [CACACA_site7135],9.975 ± 0.035
11,ATATTAAAAAGGAAATGTACGTAATGAAGATCAAGT [XGTACX_site3138],11.4 ± 0.79
12,ATATATGATGTATTTGTGCACATATATATATTATTA [GTGCAC_site9471],10.3 ± 0.2
13,AAATATCAACTCAAATGTACAAATCACAAAAATGTA [XGTACX_site5344],10.6 ± 0.53
14,ATTGCCATTGTTAATGCATGTAACAATTCAGCTCAT [TGCATGCA_site56],9.83 ± 0.014
15,ATTGTTAAATATAATACACACGTTTTTAAAAATATA [CACACA_site5239],10.1 ± 0.14
16,TAAAAATAAATAAATACATGCACCAAAAATAAATTT [TGCATGCA_site801],10.02 ± 0.042
17,AAAAAAAAAAAACATACACACACATATATATATATA [CACACA_site8452],9.89 ± 0.37
18,AATTTGATTATAAATTGTACATATATATATTAAAAG [XGTACX_site5461],11 ± 0.6
19,AAAATTATTTAGTAAGTGCAAAAAAAAAAAAAAAAA,9.77 ± 0.43
20,TATACACATAGACACACACACAAAAAAAAAAAAAAA [CACACA_site6338],10.1 ± 0.63
21,GAAAGAAAAAATGATGAATAGAGATCAAATCTATAT [XGTACX_negctrl_site28],9.47 ± 0.49
22,AAGAAAAAAAAAAAAACACACATATATTTATTTATA [CACACA_site7042],9.36 ± 0.32
23,TTGAGAAAAATTAATGGTACACATATTATAAGTATA [XGTACX_site6539],11.3 ± 0.93

row,Sequence,gcPBM binding intensity (ln)
1,TGTATAACATTTAGGTGTACAATTATATATAATATA [XGTACX_site8131],11.4 ± 0.95
2,TAATTGTACACATGCACACACAAATATTATAGATGT [CACACA_site6528],11.4 ± 0.92
3,TGACATATTATTAGGTGGTCACGTCTCCACGTCAAG [XGTACX_site7943],11.4 ± 0.87
4,AGGCTATAATACCATACACACATTTATAAAATAACA [CACACA_site6990],10.12 ± 0.092
5,TAAAAATTTGATCAAACACACGTTGCATAAATTATA [CACACA_site6040],10 ± 0.042
6,TACATATAAACAATAACACACACCTAGGTACATGGA [CACACA_site8178],10.9 ± 0.54
7,AATTAACAAAAACACACACACACACCCACAAAAAAA [CACACA_site517],10.4 ± 0.46
8,ACATATATTTATATATGTACATATGATATATACATA [XGTACX_site6122],11.3 ± 0.67
9,CTTTTGTATATTATATGTACACACAATAAGTTAATA [XGTACX_site1684],11.5 ± 0.92
10,TTATGTGATAAAAAAAAAATACAACAAAGTTAAATA [GTGCAC_negctrl_site36],9.915 ± 0.035
11,ATATATATATATATAATACACACTTATGAAATGTCT [CACACA_site1827],10.3 ± 0.45
12,TTTTTTATATTGTGATGTACAAATTTTAAAATGTAG [XGTACX_site1875],11 ± 0.73
13,GTGTGGAGTTACAAAGAGGAGAACCTCACAGTAATC [CACACA_negctrl_site527],10.2 ± 0.28
14,AAATTCGTTATAAAAACATGCAACGATCAACATTGT [TGCATGCA_site844],9.905 ± 0.007
15,TTACTCTTTATATAATGTACATATATATATATATTA [XGTACX_site2624],11 ± 0.52
16,GTAATATTAAAATATACACACATAGAATATATATAT [CACACA_site4391],9.99 ± 0.23
17,ATAATCATAAAATAAACACACATATATAAATATATT [CACACA_site276],9.9 ± 0.17
18,TTACACATATTTTTAATTATTCTGAATTCAAAAAAA [CACACA_negctrl_site1706],9.775 ± 0.078
19,TTATATTTATTGATATGTACATATTATAATTAATTA [XGTACX_site586],11.1 ± 0.7
20,AAAAATGCCAGAAAACGTACTCGGATTTTCTAATAT [XGTACX_site6552],11.1 ± 0.74
21,TGATTACATATGATGTGTACCTAATTTTGTTTACAC [XGTACX_site7032],11.2 ± 0.54
22,AAAACACGCGGACACACACACACACCCACCCATATA [CACACA_site8688],11.5 ± 0.94
23,TTTTAATATTTTGCCTGTACATAAAAGTGAGAAGAT [XGTACX_site2503],11.2 ± 0.59

row,Sequence,gcPBM binding intensity (ln)
1,AATCTATATTAATACACACACACATATATTTATATA [CACACA_site7732],10.05 ± 0.092
2,TTTATTTTGACAGATTGTACACTTTATACATGTTTT [XGTACX_site2356],11.2 ± 0.79
3,TGAAAAAAGAAAAATACACACATATAACATAATATA [CACACA_site7126],9.72 ± 0.18
4,GTATATATTTCCAGAAGTACTTATTTTTATGTATGT [XGTACX_site4079],11.4 ± 0.78
5,TATATATTATATAAGAGTACATATAATTATAGTTTT [XGTACX_site5039],11.2 ± 0.83
6,TATAAAGGTTGGTACTGTACAATATAAGAAAAAAAA [XGTACX_site435],11.1 ± 0.5
7,AAATAGTTCATAAAAAGTACAAAATTTTTATCCGTA [XGTACX_site2796],11.2 ± 0.79
8,ATCATTCATTTAACAACACACAACATATTTATCATA [CACACA_site1041],9.855 ± 0.035
9,CTCACAAATGAATACACACAAACATATATATTTATA [CACACA_site1620],10.2 ± 0.35
10,ACTATATATATAAGTGCATGTTCATTATACCTAAAG [TGCATGCA_site696],10.3 ± 0.11
11,AAAAATTCATTTTTATGTACGTACAAATTCTTCGTT [XGTACX_site2471],11.8 ± 0.87
12,AGTAAATTATATATCTGTACATATATATATGTGTAT [XGTACX_site5519],11.1 ± 0.62
13,TTTTAAAAAAATATAATACACACCAAAAATATGCAC [CACACA_site2131],10.3 ± 0.18
14,AAAAAAATATAAATACGTACATATATATATATATAT [XGTACX_site432],11.5 ± 0.98
15,CTATTCTATTTTTATTGTACATATATATAATTTGAA [XGTACX_site389],11.1 ± 0.6
16,AGAAAGGAAAAAACCTCACACATGCTTTTAATAGTA [CACACA_site4602],9.77 ± 0.15
17,TGGAATAATACGCGTACACACATATAAATATTAATA [CACACA_site6211],11.7 ± 0.91
18,ATATAATGGCTAAATAGTACAATATAATATTTTTTA [XGTACX_site8922],11 ± 0.71
19,ACACATGAATATTGTAGTACGGCAATTAATATAATA [XGTACX_site4589],11.2 ± 0.59
20,CAAATACACCAACACACACACACAAAAAAAAAAAAA [CACACA_site514],10.3 ± 0.58
21,TAAGTACGACTTGACACACATACACATATATATATA [CACACA_site1286],11.2 ± 0.8
22,ATTACCAACAGATCTTGTACATATTAAAGCATCTTA [XGTACX_site2361],10.8 ± 0.49
23,ATATACAAAGAAGCAGTGCATATTTTCTTATTTATG [GTGCAC_site9567],9.77 ± 0.14

row,Sequence,gcPBM binding intensity (ln)
1,TTGATTTCATTTTAAGTGCATAACTAATATTATATA [GTGCAC_site9713],9.95 ± 0.028
2,TTCTTTATATATTTTTGTACATATTTATTTTTAGAG [XGTACX_site6757],11.1 ± 0.38
3,TGAAAGAATAGAATGAGTACTAATTTAAATTACACT [XGTACX_site1120],11.1 ± 0.72
4,ATGTATGGTTTATATGTTCATTTGTTCACCTATTTA [CACACA_negctrl_site1533],10.27 ± 0.021
5,AAAAAAAAAAAAAACACACACACACCCATACCCATA [CACACA_site5577],10.5 ± 0.33
6,TTAGGTAGAAAAAAGACACACACATTATATATATAT [CACACA_site8016],10 ± 0.18
7,ATATATATTTAAGAGGGTACAAAAATTTATGAGCAT [XGTACX_site6156],10.9 ± 0.51
8,ATAAAACAAGCAAATCGTACAAAAGGATAATATATA [XGTACX_site5592],11 ± 0.54
9,ATATATATATATGTTAGTACATAACAAGTGTGCATA [XGTACX_site1527],11 ± 0.49
10,TCTTTGGTAATATATATGTATAAATATAAATATATA [CACACA_negctrl_site1566],9.96 ± 0.27
11,GATAAAATGAGACCAGTGCATTATTAGTTGTACACC,11.6 ± 0.84
12,TTTTTTGCTAAGTGTACACAAATGTTTATTAATTTA [CACACA_site5859],11.7 ± 1
13,AAAAAGAAAAAAAACACACACAAATATAAATAAATA [CACACA_site1183],9.65 ± 0.15
14,ATATATATATATATATGTACATATTACATTACTTAT [XGTACX_site749],11.1 ± 0.65
15,TGTGCTTATCCTAACACACACAACATATAAGAAAAA [CACACA_site3319],10.1 ± 0.23
16,AAAAAATAAAAAATATGTACACATTCAAAATTTTAC [XGTACX_site8479],11.4 ± 0.94
17,TATACATATTTATACACACACACATATATTTATATA [CACACA_site6727],10.11 ± 0.085
18,ATATTTTATACTTGCACACAAAATATATTAAAATGG [CACACA_site5139],10.2 ± 0.19
19,ATAAAATTGGAGCAAACACACAAGGTTGAAATTAAC [CACACA_site506],10.09 ± 0.021
20,TTTTCTATATAGTGTTGTACATTATTGTGTAAAAAT [XGTACX_site3223],11.2 ± 0.81
